Data as given in publication PMC11952846, “The sterol-regulating human ARV1 binds cholesterol and phospholipids through its conserved ARV1 homology domain” (The Journal of Biological Chemistry, 2025).
Changes are numbered by the printed parent chain. Names and notes keep the numbering of the source. No constants are given. Whether binding was seen depends on the method and setting. For part of these data: Binding seen in cells or lysates may run through a third protein. Some entries that bind do so weakly or less than the wild type. Where a sequence is shown, tags or fusion partners need not be part of it. One block for each binder: values may come before it.

Columns and labels:
[1] = target: T1, ARV1-N98, yeast two-hybrid fusions (pAD-ARV1-N98 and pBD-ARV1-N98) (human) (UniProt Q9H2C2); test: two-hybrid; yeast with p-AD and p-BD plasmids; serial dilutions on leu- trp- his- interaction selective medium, 37 °C, growth after 7 days
T1 sequence: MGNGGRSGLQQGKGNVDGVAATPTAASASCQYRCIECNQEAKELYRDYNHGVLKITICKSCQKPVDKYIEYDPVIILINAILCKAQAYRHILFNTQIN

[2] = target: T2, ARV1-N98, NanoBRET fusions (Nano-Luc or Halo-tag) (human) (UniProt Q9H2C2); test: FRET or BRET; Promega NanoBRET in HEK293T cells co-transfected with NanoLuc-fusion (donor) and HaloTag-fusion (acceptor) vectors; Halo + Nluc as negative control
T2 sequence: T1 sequence

[3] = target: ARV1-MYC and ARV1-FLAG (human) (UniProt Q9H2C2); test: co-IP; E. coli lysates with ARV1-MYC and ARV1-FLAG expressed separately and mixed; immunoprecipitated with anti-FLAG or anti-MYC, blotted with the antibody to the other tag; IgG as control
[4] = target: T3, full-length ARV1, NanoBRET fusions (Halo-ARV1 and Nluc-ARV1) (human) (UniProt Q9H2C2); test: FRET or BRET; Promega NanoBRET in HEK293T cells co-transfected with NanoLuc-fusion (donor) and HaloTag-fusion (acceptor) vectors; Halo + Nluc as negative control
T3 sequence: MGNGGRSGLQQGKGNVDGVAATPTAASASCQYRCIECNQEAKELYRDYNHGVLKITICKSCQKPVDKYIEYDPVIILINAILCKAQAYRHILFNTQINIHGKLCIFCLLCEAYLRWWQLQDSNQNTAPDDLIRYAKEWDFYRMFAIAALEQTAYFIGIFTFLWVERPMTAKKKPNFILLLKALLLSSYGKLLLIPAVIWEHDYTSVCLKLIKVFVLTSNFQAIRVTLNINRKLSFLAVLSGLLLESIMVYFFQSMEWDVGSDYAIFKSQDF

[5] = target: full-length ARV1, yeast two-hybrid fusions (pAD-ARV1 and pBD-ARV1) (human) (UniProt Q9H2C2); test: two-hybrid; yeast with p-AD and p-BD plasmids; serial dilutions on leu- trp- his- interaction selective medium, 37 °C, growth after 7 days
[6] = target: T4, GST-ARV1-N60 (human) (UniProt Q9H2C2); test: far-Western, overlay or dot blot; GST, GST-ARV1 truncations and 6XHIS-ARV1 dotted onto nitrocellulose, incubated with 6XHIS-ARV1 protein, probed with anti-6XHIS (and anti-GST) antibodies; both purified
T4 sequence: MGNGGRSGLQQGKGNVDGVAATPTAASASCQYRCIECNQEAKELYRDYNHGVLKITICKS

[7] = target: T5, GST-ARV1-N10 (human) (UniProt Q9H2C2); test: as above
T5 sequence: MGNGGRSGLQ

B3: ARV1-MYC and ARV1-FLAG (protein, UniProt Q9H2C2 1-271)
chain: T3 sequence
- binding [3]: binds

B5: Nluc-ARV1 (C58/C61A), full-length ARV1 mutant (protein, UniProt Q9H2C2 1-271)
chain: T3 sequence with C58A, C61A
- binding [4]: no binding

B7: Nluc-ARV1 (N94A), full-length ARV1 mutant (protein, UniProt Q9H2C2 1-271)
chain: T3 sequence with N94A
- binding [4]: binds

B8: 6XHIS-ARV1 (full-length human ARV1, N-terminal 6XHIS tag) (protein, UniProt Q9H2C2 1-271)
chain: T3 sequence
- binding [6]: no binding
- binding [7]: no binding

Second part, the binder after the results:

- binding [1]: binds
B1: ARV1-N98, yeast two-hybrid fusions (pAD-ARV1-N98 and pBD-ARV1-N98) (domain or fragment, UniProt Q9H2C2 1-98)
chain: T1 sequence

- binding [2]: binds
B2: ARV1-N98, NanoBRET fusions (Nano-Luc or Halo-tag) (domain or fragment, UniProt Q9H2C2 1-98)
chain: T1 sequence

- binding [4]: binds
- binding [2]: binds
B4: full-length ARV1, NanoBRET fusions (Halo-ARV1 and Nluc-ARV1) (protein, UniProt Q9H2C2 1-271)
chain: T3 sequence

- binding [5]: binds
- binding [1]: binds
B6: full-length ARV1, yeast two-hybrid fusions (pAD-ARV1 and pBD-ARV1) (protein, UniProt Q9H2C2 1-271)
chain: T3 sequence

- binding [4]: binds
B9: Nluc-ARV1 (K67A), full-length ARV1 mutant (protein, UniProt Q9H2C2 1-271)
chain: T3 sequence with K67A
